Data on 29 targets can be found in the supplement of paper PMC12067093, “Discovery and optimisation of a covalent ligand for TRIM25 and its application to targeted protein ubiquitination” (Chemical Science, 2025).

The full data set covers some 21,000 targets. This sample favours those with the largest changes.
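Also: competitive chemoproteomic profiling in live THP-1 cells with an iodoacetamide desthiobiotin (IA-DTB) probe, comparing probe-labelled peptide intensities in compound-treated cells against DMSO-treated controls.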

Sequence of UniProt Q6UXT9 (Q6UXT9 whole entry, looked up): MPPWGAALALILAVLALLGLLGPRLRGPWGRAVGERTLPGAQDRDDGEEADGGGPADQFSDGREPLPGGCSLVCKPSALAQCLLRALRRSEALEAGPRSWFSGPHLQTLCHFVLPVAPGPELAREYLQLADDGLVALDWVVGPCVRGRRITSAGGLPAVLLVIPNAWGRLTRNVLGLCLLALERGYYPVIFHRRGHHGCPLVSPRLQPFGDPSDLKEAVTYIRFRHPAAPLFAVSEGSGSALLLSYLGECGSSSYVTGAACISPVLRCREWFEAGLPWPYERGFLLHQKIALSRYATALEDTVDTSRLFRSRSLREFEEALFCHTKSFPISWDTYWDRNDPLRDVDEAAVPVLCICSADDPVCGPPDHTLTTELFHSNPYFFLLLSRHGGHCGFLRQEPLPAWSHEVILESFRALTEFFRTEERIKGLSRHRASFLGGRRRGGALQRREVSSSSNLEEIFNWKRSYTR
Sequence of UniProt Q96CM8 (Q96CM8 whole entry, looked up): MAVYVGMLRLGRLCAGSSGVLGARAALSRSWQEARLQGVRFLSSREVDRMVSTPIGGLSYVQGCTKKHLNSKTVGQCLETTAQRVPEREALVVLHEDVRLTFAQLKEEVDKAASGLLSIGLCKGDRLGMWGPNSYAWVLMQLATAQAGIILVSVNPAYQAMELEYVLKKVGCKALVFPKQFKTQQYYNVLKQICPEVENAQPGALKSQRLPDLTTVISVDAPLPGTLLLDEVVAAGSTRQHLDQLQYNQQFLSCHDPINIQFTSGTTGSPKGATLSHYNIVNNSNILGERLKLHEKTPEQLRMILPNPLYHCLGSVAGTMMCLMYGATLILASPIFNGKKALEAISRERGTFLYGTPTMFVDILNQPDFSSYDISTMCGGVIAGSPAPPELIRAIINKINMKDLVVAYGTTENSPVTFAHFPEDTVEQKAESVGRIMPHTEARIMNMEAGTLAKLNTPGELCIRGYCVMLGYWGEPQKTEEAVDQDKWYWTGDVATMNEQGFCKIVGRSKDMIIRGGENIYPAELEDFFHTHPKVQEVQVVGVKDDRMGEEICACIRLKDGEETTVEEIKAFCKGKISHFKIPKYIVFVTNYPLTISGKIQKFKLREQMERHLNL
Sequence of UniProt Q9UKV3 (Q9UKV3 whole entry, looked up): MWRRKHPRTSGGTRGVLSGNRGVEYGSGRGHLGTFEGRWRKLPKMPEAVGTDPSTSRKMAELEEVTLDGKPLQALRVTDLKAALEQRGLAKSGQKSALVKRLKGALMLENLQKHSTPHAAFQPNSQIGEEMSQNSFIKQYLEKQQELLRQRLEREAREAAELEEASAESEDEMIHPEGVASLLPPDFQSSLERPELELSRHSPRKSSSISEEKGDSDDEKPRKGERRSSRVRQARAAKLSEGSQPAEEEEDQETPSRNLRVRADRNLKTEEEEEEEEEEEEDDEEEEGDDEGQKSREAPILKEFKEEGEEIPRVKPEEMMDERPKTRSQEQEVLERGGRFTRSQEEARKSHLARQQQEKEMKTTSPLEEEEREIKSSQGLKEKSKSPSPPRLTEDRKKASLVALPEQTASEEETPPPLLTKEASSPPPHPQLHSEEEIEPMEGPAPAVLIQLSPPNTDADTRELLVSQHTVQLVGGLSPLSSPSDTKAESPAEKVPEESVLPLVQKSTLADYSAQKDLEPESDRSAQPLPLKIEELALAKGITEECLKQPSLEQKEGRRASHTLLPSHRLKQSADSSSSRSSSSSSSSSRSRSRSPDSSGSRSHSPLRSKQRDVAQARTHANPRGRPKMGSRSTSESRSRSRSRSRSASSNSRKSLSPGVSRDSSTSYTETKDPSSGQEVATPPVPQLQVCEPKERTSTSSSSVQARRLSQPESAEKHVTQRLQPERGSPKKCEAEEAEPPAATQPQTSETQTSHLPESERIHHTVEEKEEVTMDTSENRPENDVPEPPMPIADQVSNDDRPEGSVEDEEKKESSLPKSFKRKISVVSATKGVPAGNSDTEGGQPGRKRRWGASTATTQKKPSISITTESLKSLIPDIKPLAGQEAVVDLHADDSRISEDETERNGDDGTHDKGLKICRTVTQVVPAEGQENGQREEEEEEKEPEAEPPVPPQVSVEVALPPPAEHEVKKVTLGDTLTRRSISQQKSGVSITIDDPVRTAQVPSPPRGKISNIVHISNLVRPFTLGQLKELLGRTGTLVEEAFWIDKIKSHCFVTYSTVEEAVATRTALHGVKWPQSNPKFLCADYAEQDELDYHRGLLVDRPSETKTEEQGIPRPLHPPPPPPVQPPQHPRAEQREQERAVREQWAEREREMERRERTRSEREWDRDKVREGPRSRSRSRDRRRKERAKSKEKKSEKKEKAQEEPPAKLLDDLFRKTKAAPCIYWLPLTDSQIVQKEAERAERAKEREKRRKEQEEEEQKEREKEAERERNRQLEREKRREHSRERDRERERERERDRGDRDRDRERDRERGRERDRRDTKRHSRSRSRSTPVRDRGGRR
Sequence of UniProt O14672 (O14672 whole entry, looked up): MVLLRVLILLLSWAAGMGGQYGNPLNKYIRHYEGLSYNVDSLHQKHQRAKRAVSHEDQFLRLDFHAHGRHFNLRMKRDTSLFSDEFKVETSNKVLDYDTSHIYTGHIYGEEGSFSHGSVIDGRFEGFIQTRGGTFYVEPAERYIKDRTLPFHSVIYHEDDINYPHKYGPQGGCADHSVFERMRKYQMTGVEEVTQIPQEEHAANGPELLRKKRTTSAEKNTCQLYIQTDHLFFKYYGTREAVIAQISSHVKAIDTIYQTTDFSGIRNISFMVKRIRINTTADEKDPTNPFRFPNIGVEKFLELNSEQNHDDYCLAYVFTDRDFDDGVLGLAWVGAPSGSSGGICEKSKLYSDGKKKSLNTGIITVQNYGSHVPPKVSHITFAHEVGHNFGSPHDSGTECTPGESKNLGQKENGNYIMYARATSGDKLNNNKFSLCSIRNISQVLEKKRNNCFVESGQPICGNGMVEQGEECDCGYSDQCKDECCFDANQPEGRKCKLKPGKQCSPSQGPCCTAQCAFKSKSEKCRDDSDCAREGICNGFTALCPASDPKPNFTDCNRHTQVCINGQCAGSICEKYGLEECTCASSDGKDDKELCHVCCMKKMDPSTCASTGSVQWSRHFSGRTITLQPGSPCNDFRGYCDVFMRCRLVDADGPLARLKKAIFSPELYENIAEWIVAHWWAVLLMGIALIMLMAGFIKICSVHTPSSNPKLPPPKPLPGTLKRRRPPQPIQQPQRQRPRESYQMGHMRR
Sequence of UniProt Q9NUQ8 (Q9NUQ8 whole entry, looked up): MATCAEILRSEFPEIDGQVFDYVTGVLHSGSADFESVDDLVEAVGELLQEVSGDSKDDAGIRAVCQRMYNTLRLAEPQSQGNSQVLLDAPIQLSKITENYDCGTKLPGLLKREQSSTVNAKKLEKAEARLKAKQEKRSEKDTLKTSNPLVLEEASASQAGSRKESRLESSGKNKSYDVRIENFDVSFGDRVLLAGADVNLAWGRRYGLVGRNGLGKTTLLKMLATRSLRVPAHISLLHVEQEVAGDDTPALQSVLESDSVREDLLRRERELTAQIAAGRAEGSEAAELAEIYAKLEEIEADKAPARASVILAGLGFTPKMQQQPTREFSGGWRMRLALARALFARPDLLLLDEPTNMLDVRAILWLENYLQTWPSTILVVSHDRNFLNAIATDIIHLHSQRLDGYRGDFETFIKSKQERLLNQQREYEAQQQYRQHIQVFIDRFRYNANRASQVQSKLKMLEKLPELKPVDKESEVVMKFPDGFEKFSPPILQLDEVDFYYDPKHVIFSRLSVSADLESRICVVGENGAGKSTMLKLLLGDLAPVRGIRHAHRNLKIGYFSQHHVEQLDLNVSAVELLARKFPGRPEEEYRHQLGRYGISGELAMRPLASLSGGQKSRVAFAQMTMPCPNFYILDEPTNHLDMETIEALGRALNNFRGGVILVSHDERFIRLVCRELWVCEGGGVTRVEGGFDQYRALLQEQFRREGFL
Sequence of UniProt O60488 (O60488 whole entry, looked up): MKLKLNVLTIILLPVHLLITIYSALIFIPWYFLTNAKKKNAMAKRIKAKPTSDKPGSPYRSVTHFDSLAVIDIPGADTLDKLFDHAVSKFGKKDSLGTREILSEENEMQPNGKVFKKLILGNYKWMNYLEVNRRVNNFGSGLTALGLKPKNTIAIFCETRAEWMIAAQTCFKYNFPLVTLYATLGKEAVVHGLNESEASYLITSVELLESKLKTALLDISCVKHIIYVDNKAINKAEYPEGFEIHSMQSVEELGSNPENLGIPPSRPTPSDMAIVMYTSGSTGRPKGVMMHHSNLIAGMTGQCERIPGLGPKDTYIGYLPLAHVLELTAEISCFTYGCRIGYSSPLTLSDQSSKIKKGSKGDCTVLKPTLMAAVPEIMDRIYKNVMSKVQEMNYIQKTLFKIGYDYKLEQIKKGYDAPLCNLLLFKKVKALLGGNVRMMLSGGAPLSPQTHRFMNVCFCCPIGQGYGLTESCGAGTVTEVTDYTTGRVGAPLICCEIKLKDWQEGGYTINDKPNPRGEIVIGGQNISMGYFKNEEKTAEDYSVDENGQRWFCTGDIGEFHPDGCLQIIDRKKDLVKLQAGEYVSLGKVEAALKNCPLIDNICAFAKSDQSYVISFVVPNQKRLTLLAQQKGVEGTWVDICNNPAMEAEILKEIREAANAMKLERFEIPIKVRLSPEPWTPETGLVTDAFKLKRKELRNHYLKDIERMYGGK
Sequence of UniProt P24666 (P24666 whole entry, looked up): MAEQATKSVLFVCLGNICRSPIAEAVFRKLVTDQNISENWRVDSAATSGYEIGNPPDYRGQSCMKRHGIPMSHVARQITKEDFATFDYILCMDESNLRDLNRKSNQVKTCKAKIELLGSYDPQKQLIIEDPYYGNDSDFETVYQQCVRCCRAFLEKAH

Compound in this experiment: CC1Cc2ccccc2N1C(=O)C1CCCN(C1)C(=O)CCl (mixture of isomers) [TRIM25 ligand 11 (diastereomer mixture)]
In words: probe-labelled cysteine peptide fold change vs DMSO (competition) (log2 fold change); higher = less target engagement (more negative = stronger competition). The conditions noted are these: 10 µM; THP-1; incubation time: 4 h.
As for “ACSF2_Q96CM8_503_WYWTGDVATMNEQGFCK (UniProt Q96CM8)”, the “probe-labelled cysteine peptide fold change” value was 0.0727.

In the case of “AACS_Q86V21_525_FPGIWAHGDYCR (UniProt Q86V21)”, the “probe-labelled cysteine peptide fold change” value was 0.00945.

Take “ADAR_P55265_499_KLTECQLK (UniProt P55265)”: the “probe-labelled cysteine peptide fold change” value is -0.136.

Turning to “AFG3L2_Q9Y4W6_402_NAPCILFIDEIDAVGRK (UniProt Q9Y4W6)”, the “probe-labelled cysteine peptide fold change” value is -0.067.

For the target “AAK1_Q2M2I8_156_LQTGFTENEVLQIFCDTCEAVAR (UniProt Q2M2I8)”, the “probe-labelled cysteine peptide fold change” value is -0.0473.

As to “A8MVJ9_A8MVJ9_153_KNCIIVPNGDNVFAAVK<|>HPF1_Q9NWY4_152_KNCIIVPNGDNVFAAVK (UniProt Q9NWY4+A8MVJ9)”, the “probe-labelled cysteine peptide fold change” value is -0.365.

Consider “ABL2_P42684_266_CNKPTVYGVSPIHDK (UniProt P42684)”, for which the “probe-labelled cysteine peptide fold change” value stood at 0.341.

As to “ACADVL_P49748_477_LFVALQGCMDK (UniProt P49748)”, the “probe-labelled cysteine peptide fold change” value is -0.11.

Take “ACTN1_P12814_180_DGLGFCALIHR (UniProt P12814)”: the “probe-labelled cysteine peptide fold change” value is -0.00309.

Take “ACTN4_O43707_173_EGLLLWCQR<|>ACTN1_P12814_154_EGLLLWCQR (UniProt P12814+O43707)”: the “probe-labelled cysteine peptide fold change” value is 0.134.

Take “ADNP_Q9H2P0_514_YLPTDTLLNHMLIHGLSCPYCR (UniProt Q9H2P0)”: the “probe-labelled cysteine peptide fold change” value is 0.182.

For the target “ADGRE2_Q9UHX3_328_LQQHCVASHLLDGLEDVLR (UniProt Q9UHX3)”, the “probe-labelled cysteine peptide fold change” value is -0.169.

In the case of “AGA_P20933_286_RGEDPTIACQK (UniProt P20933)”, the “probe-labelled cysteine peptide fold change” value is -0.0737.

Regarding “ABHD10_Q9NUJ1_239_EAEHHCLLHSPIPVNCPIR (UniProt Q9NUJ1)”, the “probe-labelled cysteine peptide fold change” value came out at 0.103.

Turning to “ACSL4_O60488_303_GVMMHHSNLIAGMTGQCER (UniProt O60488)”, the “probe-labelled cysteine peptide fold change” value is 0.0224.

With “ACSL1_P33121_241_CGVEVTSMK (UniProt P33121)”, the “probe-labelled cysteine peptide fold change” value was -0.243.

Turning to “AFF3_P51826_301_SGETNSCVEEIIR (UniProt P51826)”, the “probe-labelled cysteine peptide fold change” value was -0.0479.

Regarding “ADAR_P55265_622_SPVTTLLECMHK (UniProt P55265)”, the “probe-labelled cysteine peptide fold change” value was -0.0729.

Consider “ABCF3_Q9NUQ8_102_ITENYDCGTK (UniProt Q9NUQ8)”, for which the “probe-labelled cysteine peptide fold change” value was 0.00483.

On to “ACAA1_P09110_123_QCSSGLQAVASIAGGIR (UniProt P09110)”, for which the “probe-labelled cysteine peptide fold change” value is -0.149.

For “ABCF1_Q8NE71_741_FGLESHAHTIQICK (UniProt Q8NE71)”, the “probe-labelled cysteine peptide fold change” value is -0.00214.

As to “ACAA1_P09110_148_NGSYDIGMACGVESMSLADR (UniProt P09110)”, the “probe-labelled cysteine peptide fold change” value is -0.681.

In the case of “ADGRL3_Q9HAR2_36_ELSCESYPIELR (UniProt Q9HAR2)”, the “probe-labelled cysteine peptide fold change” value stood at 0.0942.

Regarding “ACIN1_Q9UKV3_1083_FLCADYAEQDELDYHR (UniProt Q9UKV3)”, the “probe-labelled cysteine peptide fold change” value is -0.0286.

As for “ACP1_P24666_91_QITKEDFATFDYILCMDESNLR (UniProt P24666)”, the “probe-labelled cysteine peptide fold change” value is -0.658.

In the case of “ABHD15_Q6UXT9_199_GHHGCPLVSPR (UniProt Q6UXT9)”, the “probe-labelled cysteine peptide fold change” value is -0.246.

Take “ADAM10_O14672_530_DDSDCAR (UniProt O14672)”: the “probe-labelled cysteine peptide fold change” value was determined as 0.0718.

In the case of “ACTR5_Q9H9F9_265_CPDYYENNVHK (UniProt Q9H9F9)”, the “probe-labelled cysteine peptide fold change” value was -0.185.

In the case of “ACSL1_P33121_297_NIVSDCSAFVK (UniProt P33121)”, the “probe-labelled cysteine peptide fold change” value is -0.0341.
